Laboratory results as given in PubChem BioAssay AID1347417 (National Center for Advancing Translational Sciences (NCATS), 2020).
In all, about 120,000 compounds went through this assay and about 5,300 (4.4%) were called active. Inconclusive means that the source gave no clear call. Such entries were picked first, then a sample of the others. The call rests on the fitted dose curve; in most records, active means well fitted inhibition curve with a large enough effect; inconclusive means small, poorly fitted or top-dose-only effect; inactive means no such curve, though single readings can be large or run the other way. Where the call is inconclusive, the potency comes from a doubtful curve fit.

assay: qHTS Primary assay for Inhibitors of Plasmodium falciparum Dd2 growth in vitro; further: nearly all actives have a fitted effect of over 65% in size;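 on activity, negative = inhibition: plate controls were DMSO vehicle for no effect and reference drug for full effect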; conditions: P. falciparum Dd2 growth, SYBR Green, 72 h; activity, negative = inhibition: at 28.9 µM (top of the series) unless noted; series mostly up to 28.9 µM
How it was run: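 Infected erythrocytes (Dd2, 0.3% parasitemia, 2.5% hematocrit final) are added to compound in RPMI-1640/Albumax II medium, grown 72 h at 37C in low oxygen, then lysed with saponin/Triton-X containing SYBR Green and read by fluorescence.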
Potency means the concentration at half of the fitted maximal effect; tags describe the fitted curve by direction and shape.

Row | SMILES | Potency | activity, negative = inhibition | outcome
1 | O=C(CC1CCCCN(Cc2ccccc2)C1=O)NCc1cccnc1 (stereo not drawn) | inactive | – | –
2 | CC(C)(C)c1nc(C(=O)N2CCOCC2)n2ccncc12 | inconclusive: 12.6 µM [inhibitor, single point] | – | –
3 | CCOc1ccc(-c2n[nH]c3c2C(c2ccccc2OC)N(c2ccc(Br)cc2)C3=O)cc1 (stereo not drawn) | active: 10 µM | – | –
4 | O=C(Nc1cc(Cl)cc(Cl)c1)c1ccc(F)c(S(=O)(=O)N2CCCCCC2)c1 | inconclusive: 11.2 µM [inhibitor, single point] | – | –
5 | Cc1ccc(C(C)C)c(OCCn2cc(C(=O)c3ccco3)c3ccccc32)c1 | inconclusive: 11.2 µM [inhibitor, single point] | – | –
6 | CN(C)CCCC(=O)N1CCC(n2c(=O)[nH]c3ccccc32)CC1 | inconclusive: 11.2 µM [inhibitor, partial curve] | – | –
7 | COCCn1c(Cn2cnc(C(C)(C)C)c2)nnc1C1CC(N)C1 (stereo not drawn) | inactive | – | –
8 | O=C(Nc1ccc(Cl)cc1)N1Cc2[nH]cnc2C[C@H]1c1nc(-c2ccccc2)no1 | inconclusive: 10 µM [inhibitor, single point] | – | –
9 | COC(=O)C(=O)N[C@H]1C[C@@H](Cc2cc(-c3ccc(OC)cc3)on2)C1(C)C | inconclusive: 7.94 µM [inhibitor, partial curve, poor fit] | – | –
10 | O=C(c1cncc(F)c1)N1CCOCC2(CN(Cc3ccccc3)C2)C1 | inconclusive: 35.5 µM [inhibitor, single point] | – | –
11 | O=C(c1ccc(F)cc1)N1CCc2nc(C3CC3)nc(-c3ccc(Cl)cc3)c2C1 | inconclusive: 3.98 µM [inhibitor, single point] | – | –
12 | COc1ccccc1N1CCN(S(=O)(=O)c2ccc(F)c(C(=O)Nc3ccc(C)c(F)c3)c2)CC1 | inconclusive: 17.8 µM [inhibitor, single point] | – | –
13 | COc1ccc(NC(=O)c2ccco2)cc1NC(=O)COc1cc(C)cc(C)c1 | inconclusive: 8.91 µM [inhibitor, partial curve] | – | –
14 | COC(=O)c1ccc2nc(CO[C@H]3CN(Cc4ccc(Cl)cc4)C[C@H]3F)[nH]c2c1 | inconclusive: 31.6 µM [inhibitor, single point] | – | –
15 | CC(C)c1nc2c(c(-c3ccc(O)cc3)n1)CN([S+](=O)([O-])c1ccccc1)CC2 | inconclusive: 10 µM [inhibitor, single point] | – | –
16 | CCCCNC(=O)CCCn1c(=O)c2ccccc2n(Cc2ccccc2C)c1=O | inconclusive: 2 µM [inhibitor, full curve, poor fit] | – | –
17 | O=C1[C@@H]2C[C@@H](CN2C2CCOCC2)Oc2ccccc2N1Cc1ccc(OC(F)(F)F)cc1 | inconclusive: 11.2 µM [inhibitor, single point] | – | –
18 | CCc1c(C)sc2c1CCN(Cc1ccc(F)cc1)C2c1ccccc1 (stereo not drawn) | active: 3.16 µM | – | –
19 | CCc1ccc(CN(C(=O)c2cc3ccccc3oc2=O)C2CCS(=O)(=O)C2)cc1 (stereo not drawn) | inconclusive: 0.0398 µM [inhibitor, full curve, poor fit] | – | –
20 | CC(=O)N1CCC(N2C[C@@H]3OCC(=O)N(CC(N)=O)[C@@H]3C2)CC1 | inactive | – | –
21 | Cc1ccc(NC(=O)O[C@@H]2CC[C@]3(C)C(CC[C@@H](O)[C@H]3CC(=O)N3CCCC3)[C@]2(C)CO)cc1 (stereo partly drawn) | inactive | – | –

Row | SMILES | Potency | activity, negative = inhibition | outcome
22 | O=C(NCc1ccc2c(c1)OCO2)c1cnc2c(c1)N([S+](=O)([O-])c1cccnc1)CCC2 | inconclusive: 1.58 µM [inhibitor, full curve] | – | –
23 | O=C(Cc1c[nH]c2ncc(-c3ccccc3)cc12)Nc1ccc(N2CCOCC2)cc1 | inactive | – | –
24 | CCOc1ccc(-c2cnc(NCc3ccc(OC)cc3OC)n2C)cc1 | inconclusive: 15.8 µM [inhibitor, single point] | – | –
25 | O=C(NCc1ccc(F)cc1)c1ccc(NC(=O)N2CC3CCCN3c3ccccc32)cc1 (stereo not drawn) | inconclusive: 20 µM [inhibitor, single point] | – | –
26 | CN(Cc1ccc(N2CCOCC2)cc1)C(=O)CCC[C@H]1NC[C@@H]2C[C@H]1CN(Cc1ccccc1)C2 | inconclusive: 20 µM [inhibitor, single point] | – | –
27 | O=C1c2oc3ccc(F)cc3c(=O)c2C(c2cccc([N+](=O)[O-])c2)N1CCCN1CCOCC1 (stereo not drawn) | inconclusive: 11.2 µM [inhibitor, single point] | – | –
28 | CCOc1ccc(C(=O)N2CCC3(CC2)N=C(c2ccc(Cl)cc2)NO3)cc1 | inconclusive: 1.58 µM [inhibitor, partial curve] | – | –
29 | CCN(CC)CCNC(=O)Cn1ncc2c([nH]c3ccccc32)c1=O | inactive | – | –
30 | COc1ccc(-n2nc(C3CCN(C(=O)c4ccccc4)CC3)[nH]c2=O)cc1 | inactive | – | –
31 | O=C(NCc1cccnc1)c1ccc(N2CCC(NCCCn3ncc4ccccc43)CC2)cc1 | – | inconclusive: -36.2% [inhibitor] | –
32 | CCOc1ccccc1N(C)C(=O)C1CCCN(c2ncnc3onc(-c4ccc(F)cc4)c23)C1 (stereo not drawn) | inconclusive: 7.94 µM [inhibitor, partial curve, poor fit] | – | –
33 | Cc1ccc([S+](=O)([O-])N2CCC3(CC2)CC(=O)N(c2ccccc2)c2ccccc2O3)cc1 | inconclusive: 3.16 µM [inhibitor, partial curve] | – | –
34 | CN(C)CCCNc1oc(/C=C/c2ccc(F)cc2)nc1C#N | inconclusive: 7.94 µM [inhibitor, single point] | – | –
35 | CCn1ncc(N2CCCC(CC(=O)N3CCN(Cc4ccccc4)CC3)C2)cc1=O (stereo not drawn) | inconclusive: 14.1 µM [inhibitor, single point] | – | –
36 | Cn1cccc1CN1CCCC2(CC(c3cccnc3)=NO2)C1 (stereo not drawn) | – | inconclusive: -55.4% [inhibitor] | –
37 | Cc1ccccc1[S+](=O)([O-])N1CC2(CN(CCOc3ccccc3)C(=O)O2)C1 | inconclusive: 12.6 µM [inhibitor, single point] | – | –
38 | c1ncc(-c2ccc(-c3noc([C@@H]4CCCN4Cc4ccc5c(c4)OCO5)n3)cn2)cn1 | inconclusive: 28.2 µM [inhibitor, single point] | – | –
39 | CCC(C(=O)Nc1cccc(C#N)c1)n1c(=O)c(-c2ccccc2NC(C)=O)nc2ccccc21 (stereo not drawn) | inconclusive: 17.8 µM [inhibitor, single point] | – | –
40 | Cc1ccc(CSc2nc(=O)c3c(n2C)NC(=O)CC3c2ccc(OC(C)C)cc2)cc1 (stereo not drawn) | inconclusive: 8.91 µM [inhibitor, single point] | – | –
41 | Cc1ccc(S(=O)(=O)Nc2cc3c(cc2N2CCOCC2)n(C)c(=O)n3C)c(C)c1 | inconclusive: 11.2 µM [inhibitor, single point] | – | –
42 | NCC(=O)N1Cc2ccccc2CC2(CCCCN2CC2CCCC2)C1 (stereo not drawn) | inconclusive: 7.94 µM [inhibitor, partial curve] | – | –

Row | SMILES | Potency | activity, negative = inhibition | outcome
43 | Cc1ccc(NC(=O)Cn2c(-c3ccc4c(c3)OCO4)cn(-c3ccccc3)c2=O)cc1 | inconclusive: 20 µM [inhibitor, single point] | – | –
44 | CC1Oc2ccc(NC(=O)c3ccc([N+](=O)[O-])cc3)cc2CN(Cc2ccccc2)C1=O (stereo not drawn) | inactive | – | –
45 | Fc1ccc(Cc2nc3nccc(-c4ccsc4)n3n2)cc1 | inactive | – | –
46 | O=C(COc1ccc(F)cc1)N1CCC(n2cc(-c3nc(-c4ccccc4)no3)nn2)C1 (stereo not drawn) | inconclusive: 14.1 µM [inhibitor, single point] | – | –
47 | Cc1ccc([S+](=O)([O-])N2CCn3c(nn(-c4ccc([N+](=O)[O-])cc4)c3=O)C2)cc1 | inactive | – | –
48 | C[C@@]1(O)CCN(C(=O)CN)C[C@@H]1Cc1ccccc1 | inactive | – | –
49 | CN1CCN(c2ccc(-c3noc([C@@H]4CCCN4C4CCCCC4)n3)cn2)CC1 | inconclusive: 1.41 µM [inhibitor, full curve, poor fit] | – | –
50 | COc1ccc(CNC[C@H]2O[C@H](Cc3cc(-c4cccc(O)c4)on3)CC[C@@H]2O)cc1 | inactive | – | –
51 | CC(Cn1cccn1)Nc1ccc(-c2nc(-c3ccccc3F)no2)cn1 (stereo not drawn) | inconclusive: 17.8 µM [inhibitor, single point] | – | –
52 | Cc1ccc(S(=O)(=O)Cc2noc([C@@H]3C[C@@H](O)CN3Cc3cccc(C#N)c3)n2)cc1 | inactive | – | –
53 | COc1cc(CN(C(=O)COc2ccc(C)c(C)c2)c2ccccn2)cc(OC)c1OC | inconclusive: 10 µM [inhibitor, single point] | – | –
54 | COc1ccc(NC(=O)CN(Cc2ccccc2)S(=O)(=O)c2ccc3nc(C)sc3c2)cc1 | inconclusive: 11.2 µM [inhibitor, partial curve, poor fit] | – | –
55 | CCCN(CCC)CCNC(=O)c1cc2c(-c3ccccc3F)nn(C)c2s1 | active: 3.98 µM | – | –
56 | COCCO[C@H]1C(=O)N(C2CCN(C(=O)c3ccnn3C)CC2)[C@H]1c1ccncc1 | inconclusive: 17.8 µM [inhibitor, single point] | – | –
57 | CCOc1ccccc1NC(=O)N1CCCC1c1nc(CCOCC2CCOCC2)no1 (stereo not drawn) | inactive | – | –
58 | COc1cc(NC(=O)c2cnn(-c3cccc(F)c3)c2C2CCNCC2)cc(OC)c1OC | inconclusive: 10 µM [inhibitor, single point] | – | –
59 | Cc1ccsc1CN1CCc2nc(N3CCOCC3)[nH]c(=O)c2CC1 | – | – | inactive [at 5.79 µM]
60 | COCCC(=O)N[C@H]1CC[C@]2(C)CCC([C@H](C)C(=O)NCc3cccs3)[C@H](O)[C@H]2[C@@H]1C (stereo partly drawn) | inactive | – | –
61 | CCC(NC(=O)Nc1cc(Cl)ccc1OC)c1c(-n2cccc2)sc2c1CCN(C)C2 (stereo not drawn) | inconclusive: 17.8 µM [inhibitor, single point] | – | –
62 | CN1C(=O)[C@@H]2C[C@@H](CN2C2CCC2)Oc2ccccc21 | inconclusive: 28.2 µM [inhibitor, single point] | – | –
63 | COC(=O)[C@@H]1Cc2c([nH]c3ccccc23)[C@H]2C[C@@H](NCCN(C)C)C[C@@H](c3cccc(Cl)c3)N21 | active: 2.82 µM | – | –
